# Source: the supplement of paper PMC6531468
# The other results are listed elsewhere or left out. Values come from read counts of a selection and are noisy. Each score is taken over the longer molecules that contain the sequence shown.
# Legend:
# Test in all cases: 6-mer SELEX enrichment z-score vs GST control; IMP3 is the RNA-binding protein IGF2BP3; higher = more enriched by binding
# IMP3 KH1-4 = details: construct: KH1-4 (164-579); SELEX round: R4
# Protocol: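 SELEX-seq with GST-tagged IMP3 KH1-4 (Pro164-Lys579) and an N40 RNA pool, round 4. 6-mer z-score of sequence-tag enrichment normalised to the corresponding GST SELEX round; RNA k-mers written as DNA (T for U).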
# IMP3 RRM1-2 = details: construct: RRM1-2 (1-163); SELEX round: R2
# Sequence of IMP3 RRM1-2 (chain, as listed by the source): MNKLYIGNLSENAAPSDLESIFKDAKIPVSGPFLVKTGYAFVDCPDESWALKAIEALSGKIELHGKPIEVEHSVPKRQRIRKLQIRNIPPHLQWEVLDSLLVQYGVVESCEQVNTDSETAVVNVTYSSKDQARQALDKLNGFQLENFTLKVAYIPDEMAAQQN
# Protocol: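 SELEX-seq with GST-tagged IMP3 RRM1-2 (Met1-Asn163) and an N40 RNA pool, round 2. 6-mer enrichment z-score normalised to GST SELEX. RNA written as DNA (T = U).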
# IMP3 full-length = IMP3 full-length (UniProt O00425); details: construct: FL IMP3 (1-579); SELEX round: R4
# Sequence of UniProt O00425 (O00425 whole entry): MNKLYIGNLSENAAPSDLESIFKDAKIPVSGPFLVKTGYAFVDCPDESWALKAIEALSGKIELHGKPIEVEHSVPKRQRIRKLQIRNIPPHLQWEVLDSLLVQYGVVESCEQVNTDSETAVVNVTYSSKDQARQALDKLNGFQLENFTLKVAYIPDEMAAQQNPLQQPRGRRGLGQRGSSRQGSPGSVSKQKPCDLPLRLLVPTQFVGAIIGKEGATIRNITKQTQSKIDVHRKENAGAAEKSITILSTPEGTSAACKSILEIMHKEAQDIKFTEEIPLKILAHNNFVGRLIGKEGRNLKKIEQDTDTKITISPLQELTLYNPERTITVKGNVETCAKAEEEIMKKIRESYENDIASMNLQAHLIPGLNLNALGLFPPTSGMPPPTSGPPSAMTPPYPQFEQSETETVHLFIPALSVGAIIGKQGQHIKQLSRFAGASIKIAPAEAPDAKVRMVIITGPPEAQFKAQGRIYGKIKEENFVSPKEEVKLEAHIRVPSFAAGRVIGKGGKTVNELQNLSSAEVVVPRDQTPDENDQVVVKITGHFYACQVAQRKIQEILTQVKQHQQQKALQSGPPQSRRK
# Protocol: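 SELEX-seq with GST-tagged full-length IMP3 and an N40 RNA pool, round 4. Each 6-mer is scored as an enrichment z-score of sequence tags containing it, normalised to the matching GST SELEX round. RNA written as DNA (T = U).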
# IMP3 KH1-2 = details: construct: KH1-2 (164-376); SELEX round: R4
# Sequence of IMP3 KH1-2 (chain, as listed by the source): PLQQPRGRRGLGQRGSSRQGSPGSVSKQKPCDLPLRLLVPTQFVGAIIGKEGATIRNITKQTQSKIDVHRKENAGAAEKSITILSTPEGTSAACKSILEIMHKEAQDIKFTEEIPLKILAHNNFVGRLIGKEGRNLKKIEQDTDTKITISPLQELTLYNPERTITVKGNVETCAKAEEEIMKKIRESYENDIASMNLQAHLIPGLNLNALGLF
# Protocol: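 SELEX-seq with GST-tagged IMP3 KH1-2 (Pro164-Phe376) and an N40 RNA pool, round 4 (stringent 300/600 mM KCl washes). 6-mer z-score of sequence-tag enrichment normalised to the corresponding GST SELEX round; RNA k-mers written as DNA (T for U).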
# IMP3 KH3-4 = details: construct: KH3-4 (377-579); SELEX round: R4
# Sequence of IMP3 KH3-4 (chain, as listed by the source): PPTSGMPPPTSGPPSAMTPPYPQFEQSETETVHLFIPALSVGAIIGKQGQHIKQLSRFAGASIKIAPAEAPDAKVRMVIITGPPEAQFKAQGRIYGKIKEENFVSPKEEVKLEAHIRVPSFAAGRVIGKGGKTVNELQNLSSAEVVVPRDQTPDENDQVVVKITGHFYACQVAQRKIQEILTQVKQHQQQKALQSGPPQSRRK
# Protocol: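 SELEX-seq with GST-tagged IMP3 KH3-4 (Pro377-Lys579) and an N40 RNA pool, round 4. 6-mer z-score of sequence-tag enrichment normalised to the corresponding GST SELEX round; RNA k-mers written as DNA (T for U).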
# Sequence of IMP3 KH1-4 (chain, as listed by the source): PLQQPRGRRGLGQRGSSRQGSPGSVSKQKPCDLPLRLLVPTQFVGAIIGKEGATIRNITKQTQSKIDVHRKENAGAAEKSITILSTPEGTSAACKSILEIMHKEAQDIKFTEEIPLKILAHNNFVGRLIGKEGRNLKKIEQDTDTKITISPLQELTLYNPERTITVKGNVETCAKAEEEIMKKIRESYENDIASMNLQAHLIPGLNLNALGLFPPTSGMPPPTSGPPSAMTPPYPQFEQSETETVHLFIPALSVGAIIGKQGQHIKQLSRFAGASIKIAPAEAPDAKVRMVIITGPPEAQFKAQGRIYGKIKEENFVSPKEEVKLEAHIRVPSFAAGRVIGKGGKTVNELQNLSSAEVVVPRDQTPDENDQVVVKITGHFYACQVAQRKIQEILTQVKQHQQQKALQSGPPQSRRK
Sequence,6-mer SELEX enrichment z-score (IMP3 KH1-4),6-mer SELEX enrichment z-score (IMP3 RRM1-2),6-mer SELEX enrichment z-score (IMP3 full-length),6-mer SELEX enrichment z-score (IMP3 KH1-2),6-mer SELEX enrichment z-score (IMP3 KH3-4)
ACCGGG,-1.17,-0.834,-0.131,-0.879,-1.07
GTGGTA,-0.245,0.245,-0.028,-0.139,-0.025
GAATAA,1.3,-1.63,-0.728,1,2.51
CCCTTG,-0.65,-0.339,-0.694,-0.611,-0.885
CAAAAT,-0.032,-0.932,-0.832,0.105,0.385
GTAATT,0.183,-0.024,-0.112,0.164,0.598
TTTCTA,0.677,0.388,0.181,0.742,0.873
TGGTAA,-0.267,-0.072,-0.291,-0.236,-0.109
CCTTGG,-0.562,0.19,-0.103,-0.41,-0.552
TTAACA,1.47,0.365,0.306,1.68,2.22
AGCGTC,-0.862,0.446,0.356,-0.669,-0.562
CGCAGG,0.067,0.343,0.606,0.083,-0.038
GATGTA,0.332,-0.444,-0.309,0.111,0.518
TTCTCT,0.655,0.515,0.278,0.658,0.521
GTTGGC,0.328,0.44,0.493,0.356,0.279
AAGATC,0.122,-0.36,-0.318,-0.102,0.228
ACGCGA,-1.06,-0.819,-0.602,-1.01,-1.05
ATTTCT,0.934,0.426,0.392,1.04,1.01
AGAGCA,-1.1,0.468,0.327,-1.07,-0.84
ACTCTT,-0.102,0.22,-0.229,0.048,-0.075
TGGAAG,0.479,-0.332,-0.151,0.326,0.424
TGGTTG,-0.059,0.446,0.006,0.03,0.106
CAGATC,0.275,0.716,0.731,0.162,-0.05
CAAAGC,-1.6,-0.33,-0.819,-1.57,-1.73
CTCGTC,-0.632,0.323,-0.003,-0.532,-0.553
